# Results as given in the supplement of paper PMC9446081.
# About 220 (0.56%) of roughly 39,000 compounds showed activity. Some of the results follow.
# Tested on: Escherichia coli K-12 BW25113
# Assay: relative growth (OD600 normalised to plate interquartile mean) (fraction); higher = less growth inhibition, active = 0.2 or less
# Conditions: 50 µM; LB; incubation time: overnight (16-24 h)
# 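Note: static incubation at 37 °C against the wild-type strain, values averaged over two biological replicates.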
row,SMILES,relative growth
1,COc1ccc(NC(=O)N(C)C[C@@H]2OCCCC[C@@H](C)Oc3ccc(NC(=O)Nc4ccccc4)cc3C(=O)N([C@@H](C)CO)C[C@H]2C)cc1,inactive: 1.03
2,C[C@H](CO)N1C[C@H](C)[C@H](CN(C)C(=O)CCN2CCCCC2)Oc2ncc(C#Cc3ccccn3)cc2C1=O,inactive: 0.992
3,COc1ccc(CN(C)C[C@@H]2OCCCC[C@H](C)Oc3ccc(NS(=O)(=O)c4c(C)noc4C)cc3C(=O)N([C@@H](C)CO)C[C@@H]2C)cc1,inactive: 1
4,Cc1cc(C(=O)Nc2cccc3c2O[C@@H](CN(C)Cc2ccc4c(c2)OCO4)[C@@H](C)CN([C@@H](C)CO)C3=O)n(C)n1,inactive: 0.993
5,COCC#Cc1ccc2c(c1)O[C@@H](CN(C)S(=O)(=O)c1ccc(F)cc1)[C@@H](C)CN([C@@H](C)CO)S2(=O)=O,inactive: 1.02
6,COc1ccc(NC(=O)N(C)C[C@@H]2Oc3c(NC(=O)c4cc(C)nn4C)cccc3C(=O)N([C@@H](C)CO)C[C@@H]2C)cc1,inactive: 1.02
7,C=CCN(C(=O)[C@H]1N(c2c(Cl)cccc2CO)C(=O)[C@H]2[C@H](C(=O)O)[C@@H]3C=C[C@@]21O3)c1ccc(OC)cc1,inactive: 1.03
8,CSCCC(NC(=O)C(Cc1c[nH]c2ccccc12)NC(=O)CCNC(=O)OC(C)(C)C)C(=O)NC(CC(=O)O)C(=O)NC(Cc1ccccc1)C(N)=O (centres undefined),inactive: 0.9
9,COc1ccc(NC(=O)N(C)C[C@H]2Oc3cc(C#CCN(C)C)ccc3S(=O)(=O)N([C@@H](C)CO)C[C@@H]2C)cc1,inactive: 0.96
10,C[C@@H]1CCCCO[C@@H](CN(C)S(=O)(=O)c2ccccc2)[C@@H](C)CN([C@H](C)CO)C(=O)c2cc(NC(=O)Nc3ccc(C(F)(F)F)cc3)ccc2O1,inactive: 1.03
11,C[C@@H]1CN([C@H](C)CO)C(=O)Cc2cc(NC(=O)Cc3ccccc3)ccc2O[C@H]1CN(C)S(=O)(=O)c1ccc(F)cc1,inactive: 0.979
12,O=C(C[C@H]1C[C@H]2c3cc(NC(=O)C4CCOCC4)ccc3O[C@H]2[C@@H](CO)O1)NCCN1CCCCC1,inactive: 1
13,Cc1noc(C)c1NC(=O)N(C)C[C@@H]1OCCCC[C@H](C)Oc2ccc(NC(=O)Nc3ccc(F)cc3)cc2C(=O)N([C@H](C)CO)C[C@@H]1C,inactive: 0.999
14,CC(C)NC(=O)Nc1ccc2c(c1)C(=O)N([C@@H](C)CO)C[C@H](C)[C@H](CN(C)S(=O)(=O)c1ccccc1)O2,inactive: 0.967
15,CC(C)NC(=O)N[C@H]1C=C[C@H](CC(=O)O)O[C@H]1CO,inactive: 0.983
16,Cc1noc(C)c1NC(=O)N(C)C[C@H]1OCCCC[C@@H](C)Oc2ccc(NS(=O)(=O)c3ccc(F)cc3)cc2C(=O)N([C@H](C)CO)C[C@@H]1C,inactive: 0.981
17,C[C@@H]1CN([C@H](C)CO)C(=O)CCCn2cc(nn2)CO[C@@H]1CN(C)C(=O)Nc1ccc2c(c1)OCO2,inactive: 1.01
18,COc1ccc(S(=O)(=O)N(C)C[C@H]2OCCCC[C@H](C)Oc3ccc(NC(=O)Nc4ccccc4)cc3C(=O)N([C@H](C)CO)C[C@H]2C)cc1,inactive: 1.01
19,COc1ccc(NC(=O)N(C)C[C@@H]2OCCCC[C@@H](C)Oc3ccc(NC(=O)Nc4ccc(C(F)(F)F)cc4)cc3C(=O)N([C@H](C)CO)C[C@H]2C)cc1,inactive: 1.02
20,O=C(CN1CCOCC1)NCC[C@@H]1CC[C@H](NC(=O)c2ccccc2F)[C@H](CO)O1,inactive: 0.959
21,O=C(C[C@@H]1CC[C@@H]2[C@H](COC[C@H](O)CN2Cc2cccc(C(F)(F)F)c2)O1)NCCc1ccncc1,inactive: 1.01
22,CN1C(=O)c2cc(NC(=O)C3CCC3)ccc2OC[C@H]2O[C@H](CC(=O)NCCc3ccncc3)CC[C@H]21,inactive: 0.979

row,SMILES,relative growth
1,C[C@H](CO)N1C[C@H](C)[C@H](CN(C)S(=O)(=O)c2cn(C)cn2)Oc2ccc(NC(=O)Nc3ccc(F)cc3)cc2C1=O,inactive: 0.99
2,Cc1ccc(-c2ccc(OC(=O)c3ccccc3F)cc2)cc1,inactive: 0.99
3,COc1ccc(CN(C)C[C@@H]2OCCCC[C@H](C)Oc3ccc(NC(=O)CCC(F)(F)F)cc3C(=O)N([C@@H](C)CO)C[C@H]2C)cc1,inactive: 1
4,CO[C@H](CN(C)S(=O)(=O)c1ccc(C)cc1)[C@@H](C)CN([C@H](C)CO)S(=O)(=O)c1cccc(Cl)c1,inactive: 1
5,COc1cccc(CNC(=O)C[C@H]2C=C[C@H](NC(=O)C3CCOCC3)[C@@H](CO)O2)c1,inactive: 0.984
6,COc1ccccc1C#Cc1ccc2c(c1)O[C@H](CN(C)Cc1ccncc1)[C@@H](C)CN([C@@H](C)CO)S2(=O)=O,inactive: 1.03
7,C[C@@H]1CCCCO[C@@H](CN(C)C(=O)Cc2ccccc2)[C@@H](C)CN([C@H](C)CO)C(=O)c2cc(NS(=O)(=O)c3ccc(F)cc3)ccc2O1,inactive: 1.01
8,C[C@@H]1CCCCO[C@@H](CN(C)C(=O)c2ccccc2)[C@@H](C)CN([C@H](C)CO)C(=O)c2cc(NS(=O)(=O)c3ccc(F)cc3)ccc2O1,inactive: 1.02
9,CCS(=O)(=O)NCC[C@H]1CC[C@H](NC(=O)C2CC2)[C@H](CO)O1,inactive: 0.989
10,CN1C(=O)c2cc(NC(=O)c3cnccn3)ccc2OC[C@@H]2O[C@@H](CC(=O)N[C@H]3CCN(Cc4ccccc4)C3)CC[C@H]21,inactive: 1
11,C[C@H]1CN([C@@H](C)CO)C(=O)c2cccc(NC(=O)Nc3ccc(C(F)(F)F)cc3)c2O[C@H]1CN(C)Cc1ccc(Cl)c(Cl)c1,inactive: 1.03
12,CCOC(=O)[C@@H](N)Cc1ccccc1,inactive: 1.02
13,CCOC(=O)N(C)C[C@@H]1OCc2cnnn2CCCC(=O)N([C@@H](C)CO)C[C@@H]1C,inactive: 1.01
14,Cc1noc(C)c1NC(=O)Nc1ccc2c(c1)CC(=O)N([C@H](C)CO)C[C@@H](C)[C@@H](CN(C)C(=O)Nc1cccc3ccccc13)O2,inactive: 0.995
15,Cc1noc(C)c1NC(=O)Nc1ccc2c(c1)C(=O)N([C@H](C)CO)C[C@@H](C)[C@@H](CN(C)Cc1ccc(C(F)(F)F)cc1)O2,inactive: 0.937
16,C[C@H]1CN([C@@H](C)CO)S(=O)(=O)c2ccc(-c3ccncc3)cc2O[C@H]1CN(C)C(=O)c1ccc2c(c1)OCO2,inactive: 1.02
17,CCCN(C)C[C@H]1OCCCC[C@@H](C)Oc2ccc(NC(=O)Nc3ccc(F)cc3)cc2C(=O)N([C@@H](C)CO)C[C@H]1C,inactive: 0.967
18,Cn1ccnc1,inactive: 0.999
19,C[C@@H]1CN([C@H](C)CO)C(=O)c2cc(NS(C)(=O)=O)ccc2O[C@H]1CN(C)C(=O)Nc1ccc(F)cc1,inactive: 1.01
20,C[C@@H]1CN([C@H](C)CO)C(=O)c2cc(NS(=O)(=O)c3ccccc3)ccc2O[C@@H](C)CCCCO[C@@H]1CN(C)S(=O)(=O)c1ccc(Cl)cc1,inactive: 1.05
21,C[C@H]1CN([C@@H](C)CO)C(=O)c2c(c3ccccc3n2C)-c2ccccc2CO[C@@H]1CN(C)Cc1ccc(O)cc1,inactive: 0.999
22,C[C@@H]1CCCCO[C@@H](CN(C)C(=O)Nc2cccc3ccccc23)[C@H](C)CN([C@H](C)CO)C(=O)c2cc(NC(=O)c3ccccc3)ccc2O1,inactive: 1.01

row,SMILES,relative growth
1,Cc1noc(C)c1NC(=O)N(C)C[C@H]1Oc2ccc(NC(=O)c3ccncc3)cc2C(=O)N([C@@H](C)CO)C[C@H]1C,inactive: 0.955
2,Cn1cncc1CO,inactive: 0.995
3,CC(=O)OCC(=O)NCCCOc1cccc(CN2CCCCC2)c1.Cl,inactive: 1.15
4,C[C@H](CO)N1C[C@H](C)[C@H](CN(C)C(=O)CN2CCOCC2)Oc2ncc(C#CCN(C)C)cc2C1=O,inactive: 1.01
5,C[C@H]1CN([C@@H](C)CO)C(=O)Cc2cc(NC(=O)CCN3CCOCC3)ccc2O[C@H]1CN(C)C(=O)Nc1ccc(F)cc1,inactive: 0.987
6,Cc1[nH]c(=S)c(C#N)c(C)c1Cc1ccc(Cl)cc1Cl,inactive: 1.03
7,CCOC(=O)c1c(C)cc(O)c(C=O)c1O,active: 0.0424
8,Cn1cnc(S(=O)(=O)N[C@@H]2CC[C@H](CC(=O)NCC3CC3)O[C@@H]2CO)c1,inactive: 0.975
9,CN(C)C(=O)C[C@H]1CC[C@H](NC(=O)C2CCOCC2)[C@@H](CO)O1,inactive: 1.02
10,NCc1ccccc1-n1cccn1,inactive: 1
11,NS(=O)(=O)c1ccc(F)c(C(=O)O)c1,inactive: 0.988
12,Cc1cc(Nc2ncc(Cl)c(Nc3ccccc3S(=O)(=O)C(C)C)n2)c(OC(C)C)cc1C1CCNCC1,inactive: 0.967
13,COc1ccc(S(=O)(=O)N(C)C[C@H]2Oc3ccc(N(C)C)cc3C(=O)N([C@@H](C)CO)C[C@H]2C)cc1,inactive: 1.02
14,CC(C)CCCC(C)N (centres undefined),inactive: 1.03
15,CN1C(=O)c2cc(NC(=O)Nc3ccccc3F)ccc2OC[C@H]2O[C@@H](CC(=O)Nc3cccc(Cl)c3)CC[C@@H]21,inactive: 1
16,Cn1c(=O)c2[nH]c(C3CCCC3)nc2n(C)c1=O,inactive: 0.997
17,Cc1noc(C)c1NC(=O)N(C)C[C@H]1Oc2cc(C#CCN(C)C)ccc2S(=O)(=O)N([C@H](C)CO)C[C@H]1C,inactive: 0.99
18,Cc1ccc(S(=O)(=O)N(C)C[C@H]2OCCCC[C@@H](C)Oc3ccc(NS(C)(=O)=O)cc3C(=O)N([C@H](C)CO)C[C@H]2C)cc1,inactive: 1.04
19,C[C@H]1CN([C@@H](C)CO)C(=O)Cc2cc(NC(=O)Nc3cccc4ccccc34)ccc2O[C@H]1CN(C)CC1CCCCC1,inactive: 1.01
20,Cc1ccc(S(=O)(=O)Nc2cccc3c2O[C@@H](CN(C)Cc2ccc(-c4ccccc4)cc2)[C@H](C)CN([C@@H](C)CO)C3=O)cc1,inactive: 0.883
